According to PMC8976005:
Positions count from the first letter of the chain named. Names may count otherwise. Results are given in words; binding and its absence hold for the method and conditions named. In cells and extracts the contact can be indirect. Some binding calls cover weakened binding; strength is not graded here. Blank lines part the entries; values can stand above or below the binder they belong to.

By UniProt entry, the sequences of proteins in these tests, tags left out.
UniProt P38606: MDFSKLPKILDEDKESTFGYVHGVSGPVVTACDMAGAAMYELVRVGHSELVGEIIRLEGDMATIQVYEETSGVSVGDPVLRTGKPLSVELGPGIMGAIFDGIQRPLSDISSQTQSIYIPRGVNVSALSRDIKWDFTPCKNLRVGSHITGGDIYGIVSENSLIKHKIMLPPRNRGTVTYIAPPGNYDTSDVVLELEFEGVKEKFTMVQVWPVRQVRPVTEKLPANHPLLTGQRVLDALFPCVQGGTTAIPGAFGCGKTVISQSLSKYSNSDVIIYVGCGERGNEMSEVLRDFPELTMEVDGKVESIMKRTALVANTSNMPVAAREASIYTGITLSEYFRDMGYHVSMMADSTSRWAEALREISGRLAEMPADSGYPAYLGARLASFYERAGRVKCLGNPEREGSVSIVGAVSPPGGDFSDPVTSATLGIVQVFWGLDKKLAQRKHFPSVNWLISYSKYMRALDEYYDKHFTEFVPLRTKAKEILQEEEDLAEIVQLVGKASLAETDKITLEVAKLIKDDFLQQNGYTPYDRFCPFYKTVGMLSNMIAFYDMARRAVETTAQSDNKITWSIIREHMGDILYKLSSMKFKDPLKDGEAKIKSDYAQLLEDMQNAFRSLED
UniProt Q6R327: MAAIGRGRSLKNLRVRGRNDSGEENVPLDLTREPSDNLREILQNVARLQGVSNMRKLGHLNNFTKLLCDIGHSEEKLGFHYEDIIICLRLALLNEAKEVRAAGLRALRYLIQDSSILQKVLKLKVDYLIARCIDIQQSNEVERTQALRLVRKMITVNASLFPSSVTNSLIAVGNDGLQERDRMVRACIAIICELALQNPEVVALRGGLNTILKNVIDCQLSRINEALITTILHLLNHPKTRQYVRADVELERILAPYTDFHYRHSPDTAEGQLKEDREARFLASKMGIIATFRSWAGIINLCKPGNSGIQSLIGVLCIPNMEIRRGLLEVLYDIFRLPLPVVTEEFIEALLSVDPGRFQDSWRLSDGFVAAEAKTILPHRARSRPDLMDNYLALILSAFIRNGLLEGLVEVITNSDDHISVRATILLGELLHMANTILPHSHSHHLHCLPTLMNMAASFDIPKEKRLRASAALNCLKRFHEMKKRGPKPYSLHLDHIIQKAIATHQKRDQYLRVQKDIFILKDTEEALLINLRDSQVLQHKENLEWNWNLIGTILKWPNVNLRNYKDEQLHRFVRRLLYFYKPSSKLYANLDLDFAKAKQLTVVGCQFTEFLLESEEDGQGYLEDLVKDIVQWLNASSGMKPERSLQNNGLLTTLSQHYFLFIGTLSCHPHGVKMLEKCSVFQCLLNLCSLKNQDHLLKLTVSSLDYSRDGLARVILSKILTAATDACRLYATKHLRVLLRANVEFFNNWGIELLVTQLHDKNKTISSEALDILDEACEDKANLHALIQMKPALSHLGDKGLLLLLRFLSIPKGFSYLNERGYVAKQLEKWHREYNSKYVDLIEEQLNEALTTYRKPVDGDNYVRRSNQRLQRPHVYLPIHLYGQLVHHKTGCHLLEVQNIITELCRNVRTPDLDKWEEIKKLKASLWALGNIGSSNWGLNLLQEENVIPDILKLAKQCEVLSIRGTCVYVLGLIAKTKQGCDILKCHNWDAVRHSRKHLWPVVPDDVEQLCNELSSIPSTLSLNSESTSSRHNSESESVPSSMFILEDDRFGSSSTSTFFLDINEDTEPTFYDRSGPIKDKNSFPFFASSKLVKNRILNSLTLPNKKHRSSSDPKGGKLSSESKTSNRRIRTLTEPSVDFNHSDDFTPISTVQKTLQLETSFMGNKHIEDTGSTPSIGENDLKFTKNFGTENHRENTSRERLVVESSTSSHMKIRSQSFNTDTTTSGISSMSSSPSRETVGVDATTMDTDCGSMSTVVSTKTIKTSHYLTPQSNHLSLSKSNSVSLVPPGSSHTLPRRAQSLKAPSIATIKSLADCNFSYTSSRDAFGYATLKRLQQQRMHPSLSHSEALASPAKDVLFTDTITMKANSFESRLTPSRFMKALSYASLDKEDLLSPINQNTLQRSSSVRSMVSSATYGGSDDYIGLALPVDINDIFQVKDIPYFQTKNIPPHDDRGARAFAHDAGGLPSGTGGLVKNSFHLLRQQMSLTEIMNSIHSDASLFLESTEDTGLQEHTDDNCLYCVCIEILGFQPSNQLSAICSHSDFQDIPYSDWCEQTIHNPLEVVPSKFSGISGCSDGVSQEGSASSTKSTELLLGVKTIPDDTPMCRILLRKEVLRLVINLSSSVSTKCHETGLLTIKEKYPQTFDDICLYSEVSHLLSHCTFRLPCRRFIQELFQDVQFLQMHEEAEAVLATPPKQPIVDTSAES
UniProt Q8N122: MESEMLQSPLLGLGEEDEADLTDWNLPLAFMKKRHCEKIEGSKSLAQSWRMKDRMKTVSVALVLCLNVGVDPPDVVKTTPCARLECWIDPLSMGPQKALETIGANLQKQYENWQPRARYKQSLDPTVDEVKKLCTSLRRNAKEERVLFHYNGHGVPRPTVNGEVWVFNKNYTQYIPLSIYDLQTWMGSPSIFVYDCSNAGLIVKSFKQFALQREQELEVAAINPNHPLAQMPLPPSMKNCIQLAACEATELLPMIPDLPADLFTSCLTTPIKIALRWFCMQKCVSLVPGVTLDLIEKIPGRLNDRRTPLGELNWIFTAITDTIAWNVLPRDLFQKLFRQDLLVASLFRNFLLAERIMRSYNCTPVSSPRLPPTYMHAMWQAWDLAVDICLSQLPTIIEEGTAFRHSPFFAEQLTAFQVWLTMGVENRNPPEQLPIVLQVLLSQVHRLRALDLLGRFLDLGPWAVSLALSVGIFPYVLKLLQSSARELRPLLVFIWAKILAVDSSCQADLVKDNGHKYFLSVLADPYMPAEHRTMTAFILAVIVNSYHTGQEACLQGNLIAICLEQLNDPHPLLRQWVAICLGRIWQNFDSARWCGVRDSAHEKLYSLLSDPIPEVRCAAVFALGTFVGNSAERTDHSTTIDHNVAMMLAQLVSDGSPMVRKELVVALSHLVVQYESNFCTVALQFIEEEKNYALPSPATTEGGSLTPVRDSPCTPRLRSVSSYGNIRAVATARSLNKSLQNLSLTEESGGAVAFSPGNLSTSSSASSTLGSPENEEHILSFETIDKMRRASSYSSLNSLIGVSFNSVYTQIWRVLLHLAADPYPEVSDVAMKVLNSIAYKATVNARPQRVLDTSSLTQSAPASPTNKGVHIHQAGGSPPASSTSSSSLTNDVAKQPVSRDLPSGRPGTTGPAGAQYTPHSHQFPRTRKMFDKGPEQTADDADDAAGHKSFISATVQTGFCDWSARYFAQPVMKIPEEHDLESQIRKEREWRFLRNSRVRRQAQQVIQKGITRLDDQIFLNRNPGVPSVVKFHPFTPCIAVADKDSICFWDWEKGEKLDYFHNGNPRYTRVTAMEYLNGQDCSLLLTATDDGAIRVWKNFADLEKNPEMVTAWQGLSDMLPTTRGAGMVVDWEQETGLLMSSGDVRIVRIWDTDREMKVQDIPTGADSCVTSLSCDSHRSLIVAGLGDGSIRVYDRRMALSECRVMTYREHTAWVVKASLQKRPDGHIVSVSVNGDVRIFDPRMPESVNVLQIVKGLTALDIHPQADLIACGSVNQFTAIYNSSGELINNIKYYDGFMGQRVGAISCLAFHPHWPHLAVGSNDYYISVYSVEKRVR

What was measured:
Assay in all cases: co-IP; HEK293T cells 24-36 h after transfection, lysed in BLB lysis buffer or IP buffer (0.5% NP-40, 150 mM NaCl, 50 mM Tris-HCl, pH 7.5); anti-FLAG or anti-HA beads overnight at 4 °C; immunoblot
ATP6V1A = ATP6V1A (UniProt P38606)
Rictor = Rictor (UniProt Q6R327)
PRAS40 = PRAS40 (UniProt Q96B36)
Raptor = Raptor (UniProt Q8N122)

B1: P5 domain of STK11IP (amino acid 360-770) (domain or fragment, UniProt Q8N1F8 360-770)
chain: SDSLSSGGVVTQPLLHKVKSRVRVRRASISEPSDTDPEPRTLNPSPAGWFVQQHPELELMSSFRERFGRNWLQYRSHLEPSGNPLPATPTTSAPSAPPASSQGPDTAPRPSPPQEEARGPQESPQKMSEEVRAEPQEEEEEKEGKEEKEEGEMVEQGEEEAGEEEEEEQDQKEVEAELCRPLLVCPLEGPEGVRGRECFLRVTSAHLFEVELQAARTLERLELQSLEAAEIEPEAQAQRSPRPTGSDLLPGAPILSLRFSYICPDRQLRRYLVLEPDAHAAVQELLAVLTPVTNVAREQLGEARDLLLGRFQCLRCGHEFKPEEPRMGLDSEEGWRPLFQKTESPAVCPNCGSDHVVLLAVSRGTPNRERKQGEQSLAPSPSASPVCHPPGHGDHLDRAKNSPPQAPSTRD
- binding (ATP6V1A): binds

B2: S404D P5 mutant of STK11IP (domain or fragment, UniProt Q8N1F8 360-770)
chain: B1 chain with S45D
- binding (ATP6V1A): binds

B3: P5 domain of STK11IP bearing the S404A mutation (domain or fragment, UniProt Q8N1F8 360-770)
chain: B1 chain with S45A
- binding (ATP6V1A): binds

B6: S404A-STK11IP (protein, UniProt Q8N1F8 1-1088)
chain: MTTAQRDSLLWKLAGLLRESGDVVLSGCSTLSLLTPTLQQLNHVFELHLGPWGPGQTGFVALPSHPADSPVILQLQFLFDVLQKTLSLKLVHVAGPGPTGPIKIFPFKSLRHLELRGVPLHCLHGLRGIYSQLETLICSRSLQALEELLSACGGDFCSALPWLALLSANFSYNALTALDSSLRLLSALRFLNLSHNQVQDCQGFLMDLCELHHLDISYNRLHLVPRMGPSGAALGVLILRGNELRSLHGLEQLRNLRHLDLAYNLLEGHRELSPLWLLAELRKLYLEGNPLWFHPEHRAATAQYLSPRARDAATGFLLDGKVLSLTDFQTHTSLGLSPMGPPLPWPVGSTPETSGGPDLSDSLSSGGVVTQPLLHKVKSRVRVRRASISEPSDTDPEPRTLNPAPAGWFVQQHPELELMSSFRERFGRNWLQYRSHLEPSGNPLPATPTTSAPSAPPASSQGPDTAPRPSPPQEEARGPQESPQKMSEEVRAEPQEEEEEKEGKEEKEEGEMVEQGEEEAGEEEEEEQDQKEVEAELCRPLLVCPLEGPEGVRGRECFLRVTSAHLFEVELQAARTLERLELQSLEAAEIEPEAQAQRSPRPTGSDLLPGAPILSLRFSYICPDRQLRRYLVLEPDAHAAVQELLAVLTPVTNVAREQLGEARDLLLGRFQCLRCGHEFKPEEPRMGLDSEEGWRPLFQKTESPAVCPNCGSDHVVLLAVSRGTPNRERKQGEQSLAPSPSASPVCHPPGHGDHLDRAKNSPPQAPSTRDHGSWSLSPPPERCGLRSVDHRLRLFLDVEVFSDAQEEFQCCLKVPVALAGHTGEFMCLVVVSDRRLYLLKVTGEMREPPASWLQLTLAVPLQDLSGIELGLAGQSLRLEWAAGAGRCVLLPRDARHCRAFLEELLDVLQSLPPAWRNCVSATEEEVTPQHRLWPLLEKDSSLEARQFFYLRAFLVEGPSTCLVSLLLTPSTLFLLDEDAAGSPAEPSPPAASGEASEKVPPSGPGPAVRVREQQPLSSLSSVLLYRSAPEDLRLLFYDEVSRLESFWALRVVCQEQLTALLAWIREPWEELFSIGLRTVIQEALALDR
- binding (ATP6V1A): binds

The remaining lines, values ahead:

- binding (Rictor): no binding
- binding (PRAS40): binds
- binding (Raptor): binds
- binding (ATP6V1A): binds
B4: STK11IP (protein, UniProt Q8N1F8 1-1088)
chain: B6 chain with A404S

- binding (ATP6V1A): binds
B5: S404D-STK11IP (protein, UniProt Q8N1F8 1-1088)
chain: B6 chain with A404D

- binding (Raptor): no binding
B7: STK11IP F567A (protein, UniProt Q8N1F8 1-1088)
chain: B6 chain with A404S, F567A
